This note sets out measurements from patent publication US20220177596A1 (Bristol-Myers Squibb, published 2022).

The target of assay [1] is human CD40 on primary human cells (tonsillar B cells, immature dendritic cells) (human, UniProt P25942 21-277). The assay can be described thus: cell-based or functional assay.
The next assay deals with T1, human-CD40 monomer (human, UniProt P25942 part only, limits assumed).
T1 construct: also called hCD40-monomer; human-CD40-monomer protein
Briefly: SPR, Ab captured on protein A, CD40 monomer analyte. The source says:
Based on the supernatant screening SPR data and bias towards constructs with fewer framework back-mutations, a subset of humanized Y1238 antibodies were selected for expression, purification, and further characterization. Two of these antibodies (i.e., Y1238-hz1 and Y1238-hz2) were formatted with P238K and N297A isotypes (i.e., SEQ ID NOS: 39, 40, 42, and 43 for heavy chains; see TABLE 15 for light chains) and tested for CD40 and FcgR binding by SPR. […] The Fc domain is underlined.

Sequence of human-CD40 monomer (P25942 21-193 limits assumed): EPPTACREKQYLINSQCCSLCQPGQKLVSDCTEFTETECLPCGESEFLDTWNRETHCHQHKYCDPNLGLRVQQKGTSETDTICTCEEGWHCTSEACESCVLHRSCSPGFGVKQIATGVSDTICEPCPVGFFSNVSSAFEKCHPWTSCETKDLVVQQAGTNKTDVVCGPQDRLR

B1: Y1238-hz1-P238K (antibody, human IgG1, kappa)
heavy: QVQLVQSGAEVKKPGASVKVSCKASGYAFTNYLIEWVRQAPGQGLEWMGVINPGSGGTNYNEKFKGRVTMTRDTSISTAYMELSRLRSDDTAVYYCARSQLGRRFDYWGQGTLVTVSS[omitted - human IgG1 constant region with P238K (EU numbers)]
light: DIQMTQSPSSLSASVGDRVTITCKASQDVRTGVAWYQQKPGKAPKLLIYSASYRNTGVPSRFSGSGSGTDFTFTISSLQPEDIATYYCQQHYSPPYTFGGGTKVEIKRTVAAPSVFIFPPSDEQLKSGTASVVCLLNNFYPREAKVQWKVDNALQSGNSQESVTEQDSKDSTYSLSSTLTLSKADYEKHKVYACEVTHQGLSSPVTKSFNRGEC
notes: Humanized Y1238
On to B1, for which, in assay [1], the “IC50 for inhibition of proliferation of B cells, CD40L Trimer” value turned out to be 3.1 ng/mL and the “IC50 for inhibition of proliferation of B cells, CHO CD40L” value amounted to 32 ng/mL. In the assay with human-CD40 monomer, the Kd amounted to 5 nM, the koff was determined as 0.00039 s⁻¹ and the kon was determined as 78000 M⁻¹ s⁻¹.

B2: Y1238-hz1-N297A (antibody, human IgG1, kappa)
heavy: QVQLVQSGAEVKKPGASVKVSCKASGYAFTNYLIEWVRQAPGQGLEWMGVINPGSGGTNYNEKFKGRVTMTRDTSISTAYMELSRLRSDDTAVYYCARSQLGRRFDYWGQGTLVTVSSASTKGPSVFPLAPSSKSTSGGTAALGCLVKDYFPEPVTVSWNSGALTSGVHTFPAVLQSSGLYSLSSVVTVPSSSLGTQTYICNVNHKPSNTKVDKRV[omitted - human IgG1 Fc with changes]
light: B1 light
notes: Humanized Y1238
With B2, in assay [1], the “IC50 for inhibition of proliferation of B cells, CD40L Trimer” value turned out to be 3.1 ng/mL and the “IC50 for inhibition of proliferation of B cells, CHO CD40L” value worked out at 35 ng/mL. In addition, in the assay with human-CD40 monomer, the Kd turned out to be 5 nM, the koff amounted to 0.00039 s⁻¹ and the kon turned out to be 80000 M⁻¹ s⁻¹.
